About 1,200 (2.5%) of roughly 48,000 compounds were called active. Inconclusive results (about 2%) are left out.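 How the source made its calls: active means activation of at least 60% and not above a set upper limit (about 1 call in 100 departs from these limits); inconclusive means activation of 40% to 60%, or above that upper limit; inactive means activation under 40%.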 The list shows a part of the results.
The molecules below were run against Probable G-protein coupled receptor 32 (Homo sapiens) (UniProt O75388) (assay: qHTS for Agonists of Human Resolvin D1 Receptor DRV1). Details: CHO-K1 GPR32 beta-arrestin PathHunter luminescence, 90 min; at 76.9 µM; active compounds read high; zero percent set by DMSO-only wells.
Method in brief: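 Luminescent readout of beta-Gal complementation quantifies ligand-induced beta-arrestin association with GPR32 in CHO-K1 cells; 90 min compound incubation at 37 °C, detection 1 h at room temperature.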
Further: 0% is about no effect.

Chain of UniProt O75388 (O75388 whole entry, looked up): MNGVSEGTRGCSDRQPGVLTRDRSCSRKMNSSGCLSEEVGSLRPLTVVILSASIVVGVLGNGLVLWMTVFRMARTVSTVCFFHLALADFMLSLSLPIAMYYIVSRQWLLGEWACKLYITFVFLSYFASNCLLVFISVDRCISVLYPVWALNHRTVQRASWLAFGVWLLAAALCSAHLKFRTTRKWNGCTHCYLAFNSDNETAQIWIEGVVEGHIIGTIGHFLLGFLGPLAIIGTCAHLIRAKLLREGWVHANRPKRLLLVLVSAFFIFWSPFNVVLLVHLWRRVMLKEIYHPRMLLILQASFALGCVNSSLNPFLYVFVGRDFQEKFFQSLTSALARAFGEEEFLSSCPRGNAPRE

Compound	activation
O=c1ccc2cc(S(=O)(=O)NCc3ccc(Br)cc3)ccc2[nH]1	inactive: 14.9%
Cc1ccc(NC(=O)CSc2nccn2Cc2ccco2)cc1Cl	inactive: -4.58%
Cn1c(=O)c2c(n3c4ccccc4nc13)NC(=O)CC2c1cccc(F)c1 (stereo not given)	inactive: -0.188%
COc1ccc(-c2onc(C)c2C)cc1S(=O)(=O)NCC(C)c1ccccc1 (stereo not given)	inactive: -7.88%
Cc1cc(NC(=O)COCc2cc(-c3ccc(F)cc3)on2)ccc1Br	inactive: 2.17%
CCNc1ccc(-c2nc(-c3ccccn3)no2)cc1[N+](=O)[O-]	inactive: -2.86%
O=C(CCCCn1c(=O)c2ccccc2n(Cc2ccccc2Cl)c1=O)NCc1ccc2c(c1)OCO2	inactive: -6.82%
CCCn1c2ccccc2c2cnn(CC(=O)N3CCN(c4ccccc4F)CC3)c(=O)c21	inactive: -10.5%
CCOc1ccc(CCNS(=O)(=O)c2c(C)nc3scc(C)n3c2=O)cc1OCC	inactive: -5.36%
COC(=O)C1=C(C)NC(C)=C(C(=O)OCC(C)C)C1c1ccccc1[N+](=O)[O-] (stereo not given)	inactive: 38.7%
Cc1ccc(C)c(NC(=O)N2CCC(CN3CCOCC3)CC2)c1	inactive: -10.7%
CCOc1ccc(CNC(=O)c2ccc3nc(CC)c(CC)nc3c2)cc1	inactive: -17.8%
CC(C)Oc1cccc(C(=O)Nc2ccc3oc(-c4cccc(Cl)c4)nc3c2)c1	inactive: 3.95%
COc1cccc(N2CCN(C(=O)CCCn3c(=O)[nH]c4ccc(Br)cc4c3=O)CC2)c1	inactive: 45.8%
Cc1ccc(Nc2c(-c3ccc(Cl)cc3)nc3sccn23)c(C)c1	inactive: -22.4%
CCN(CC)C(=O)c1sc2c(c1C)c(=O)n(-c1ccc(Cl)c(Cl)c1)c(=O)n2Cc1cc(=O)n2ccccc2n1	inactive: -15.5%
COc1cccc(CNC(=O)Cn2c(=O)n3nc(-c4cccc(F)c4)nc3c3ccccc32)c1	inactive: 19.6%
Cc1ccc(CCNc2ncnc3onc(-c4ccc(F)cc4)c23)cc1	inactive: -4.39%
Cc1oc2c(cc(NS(=O)(=O)c3ccc(C(C)C)cc3)c3ccccc32)c1C(=O)O	inactive: 47.5%
CC(=O)Nc1ccc(S(=O)(=O)N2CCC(c3nnc(-c4ccc(C)cc4)o3)CC2)cc1	inactive: 13.1%
CC(C)C(=O)N1c2nc(-c3ccco3)nn2C2(CCCCC2)[C@@H]2CCCC[C@@H]21	inactive: -13.9%
Cc1ccc(S(=O)(=O)c2[nH]c(-c3ccccc3)nc2SCC(N)=O)cc1	inactive: 12.8%

Compound	activation
COc1ccc(NC(=O)CCn2c(=O)c3cccn3c3cccnc32)cc1Cl	inactive: -12.8%
O=C(Cn1c(=O)n(CCCS(=O)(=O)C2CCCCC2)c(=O)c2ccccc21)Nc1ccccc1C(F)(F)F	inactive: -9.32%
Cc1ccc(C)c(N2CCN(C(=O)CCS(=O)(=O)c3cc4c(cc3Cl)NC(=O)CO4)CC2)c1	inactive: 23.4%
CCOC(=O)N1CCN(C(=O)c2c(C)nn(-c3cccc(C)c3)c2-n2cccc2)CC1	inactive: 0.0635%
COc1ccccc1CNS(=O)(=O)c1ccc2c(c1)CC(=O)N2C	inactive: -18.8%
COC(=O)c1sc2ncccc2c1-n1c(C)ccc1C	inactive: -16.9%
CCCSc1nnc2c(n1)OC(c1ccc(Br)s1)Nc1ccccc1-2 (stereo not given)	inactive: -6.81%
COc1ccc(-n2ncc3c2ncn2nc(COc4ccc(Cl)cc4)nc32)cc1	inactive: -18.1%
COc1ccc(CNC(=O)C2=C(C)C(=O)OC23CCCCC3)cc1	inactive: -14.8%
O=C(NCc1ccc2c(c1)CCN2C(=O)c1ccccc1)c1ccccc1	inactive: -17.1%
Cc1ccc2oc3c(c(=O)c2c1)C(c1ccccc1F)N(CCCN(C)C)C3=O (stereo not given)	inactive: -6.89%
CCOc1ccccc1NC(=O)C(CC)Sc1nc2ncccc2[nH]1 (stereo not given)	inactive: -7.61%
Cc1ccc(-n2ncc3c(N4CCC(C(N)=O)CC4)ncnc32)cc1	inactive: -10.4%
O=C(Cn1ncc2ccsc2c1=O)N1CCN(c2ccc(F)cc2)CC1	inactive: 19.4%
CCC1CN(C(=O)Nc2cccc3c2CCCC3)c2cc(Cl)ccc2O1 (stereo not given)	inactive: -33%
COc1ccc(CCNC(=O)CSc2cn(CCNC(=O)c3cccc(C(F)(F)F)c3)c3ccccc23)cc1OC	active: 104%
Cc1oc(-c2ccccc2Cl)nc1CS(=O)CC(=O)NCc1ccc(Cl)cc1 (stereo not given)	inactive: -1.69%
Cc1ccc(S(=O)(=O)N2CCc3cc(C(=O)Nc4ccc(C(F)(F)F)cc4)ccc32)cc1	inactive: -3.69%
O=C(CSc1nc2c([nH]c3ccccc32)c(=O)n1-c1cccc(Cl)c1)NCC1CCCO1 (stereo not given)	inactive: -3.98%
COc1ccc(CNS(=O)(=O)c2cc3c4c(c2)CCN4C(=O)CC3)cc1	inactive: -17.7%
Fc1ccc(-c2ccc(CNCCSc3nnnn3-c3ccccc3)o2)cc1	inactive: 23%
O=S(=O)(Nc1nc2ccccc2nc1Nc1ccccc1Br)c1ccccc1	inactive: -1.82%

Compound	activation
Cc1ccc(COc2ccc(-c3cc(C(F)(F)F)n4nc(C)cc4n3)cc2)cc1	inactive: -3.03%
CC1CCc2c(sc(NC(=O)c3cc(-c4cccc(Cl)c4)on3)c2C(N)=O)C1 (stereo not given)	inactive: -12.1%
Cc1ccc(NC(=O)Cc2coc3ccc(C(C)C)cc23)c(C)c1	inactive: 4.54%
CCOc1ccc(-c2cn(-c3ccc(C)cc3)c(SCC(=O)Nc3ccc(C)cc3)n2)cc1	inactive: -22.1%
COc1cccc(CNC(=O)C(C)n2ncn3cccc3c2=O)c1OC (stereo not given)	inactive: 1.81%
O=C(Cn1c2ncccc2c(=O)n1-c1ccccc1)NCc1ccccc1Cl	inactive: -6.41%
Cc1cc(N2CCCCC2)nc2ccc(NC(=O)/C=C/c3ccc(OC(C)C)cc3)cc12	inactive: 1.38%
COC(=O)c1c(Oc2ccc(OC)cc2)nnc(-c2ccccc2)c1-c1ccccc1	inactive: -20.3%
CCCCOc1ccc(C2=NC(c3cccs3)=Nc3ccc(CC)cc3N2)cc1	inactive: -24.5%
CC(C)CC(=O)Nc1nc2nc(-c3ccccc3)cc(=O)n2[nH]1	inactive: -8.63%
Cc1ccc(NC(=O)c2cnc(N3CCCCC3)c3ccccc23)c(C)c1	inactive: -2.62%
COCCCNC(=O)C1CCN(C(=O)c2cnn(-c3ccccc3)c2-n2cccc2)CC1	inactive: -25.9%
CCCN1CCN(C(=O)Cn2c(-c3cccs3)cc3ccccc32)CC1	inactive: -11.4%
Cc1cccc(NC(=O)N2CCN(C(=O)c3nsc4ccccc34)CC2)c1C	inactive: -8.64%
COc1ccc(CNC(=O)CCCn2nc(C)c3sc4ccccc4c3c2=O)cc1OC	inactive: -6.24%
CCOc1ccccc1CNC(=O)c1ccc(N2Cc3ccccc3Oc3ncccc32)s1	inactive: -16.9%
CCOC(=O)c1ccc(O)c(O)c1	inactive: 41.1%
Cc1ccc(N2C(=O)NC(NS(=O)(=O)c3ccccc3)(C(F)(F)F)C2=O)cc1C (stereo not given)	inactive: 10.8%
COc1cccc(NC(=O)CN2C(=O)CSc3ccc(S(=O)(=O)N4CCCC4)cc32)c1	inactive: -20.6%
Cc1ccc2c(CC(=O)Nc3ccc(S(=O)(=O)N4CCCCC4C)cc3)coc2c1 (stereo not given)	inactive: -14.6%
Cc1ccc(CNC(=O)c2cccn2-c2nnc(N3CCCC3)s2)cc1	inactive: 6.79%
COc1ccc(N2CCN(C(=O)c3cnn(-c4ccc(F)cc4)c3-n3cccc3)CC2)cc1	inactive: 6.6%

Compound	activation
COC(=O)COc1ccc2oc(-c3ccc(OC)cc3)cc(=O)c2c1	inactive: -1.8%
Clc1ccc2c(c1)-c1c(cnc3cc(-c4ccccc4)nn13)CO2	inactive: 4.5%
O=C(Nc1ccc(Br)cc1F)C1CCN(c2nc3ccccc3[nH]2)CC1	inactive: -19.4%
CCC1CCCCN1CCCNC(=O)CN1C(=O)c2cccnc2Oc2ccc(C)cc21 (stereo not given)	inactive: -3.45%
Cc1ccc(CNC(=O)CCc2c(C)c3ccc(O)c(C)c3oc2=O)cc1	inactive: -0.0146%
CSc1cccc(Nc2cc(C(=O)NCCc3ccc(Cl)cc3)c3ccccc3n2)c1	inactive: -4.59%
CCOc1ccc(C(=O)Nc2nnc(S(=O)(=O)Nc3ccccc3)s2)cc1	inactive: 8.75%
CCOc1cc2[nH]c(=O)n(CCCCC(=O)N3CCN(c4ccc(OC)cc4)CC3)c(=O)c2cc1OCC	inactive: -8.14%
O=C1CCCc2cc(S(=O)(=O)N3CCCC(C(=O)Nc4ccc(F)c(Cl)c4)C3)ccc2N1 (stereo not given)	inactive: 34.5%
CCOc1ccc2nc(N3CCC(C(=O)Nc4ccccc4CC)CC3)sc2c1	inactive: 10.1%
CC1CN(C(=O)N2CCC(C(=O)N3CCN(c4ccccc4)CC3)CC2)c2cc(Cl)ccc2O1 (stereo not given)	inactive: -19.4%
Cc1cc(C)cc(NC(=O)c2cc(C)nc3c2c(C)nn3-c2ccccc2)c1	inactive: 24.7%
CCOc1ccc(NC(=O)c2cc3c(C)nn(-c4ccccc4)c3s2)cc1	inactive: -18.6%
Cc1ccc(OCC(=O)N(Cc2ccc(Cl)cc2)Cc2ccco2)cc1C	inactive: -27.1%
COc1ccc(NC(=O)Cn2c(=O)n(CCC(C)C)c(=O)c3cccnc32)cc1Cl	inactive: -8.89%
COc1cccc(-c2nc(SCC(=O)NCC3CCCO3)c(-c3ccc(C)cc3)[nH]2)c1 (stereo not given)	inactive: -20.9%
CCOc1ccc(C2CC(=O)NC(NC(=O)c3ccc(C)cc3)=N2)cc1 (stereo not given)	inactive: -4.86%
COc1ccc(NC(=O)c2ccc3c(=O)n4nc(Nc5ccccc5C)sc4nc3c2)cc1Cl	inactive: 16.2%
Cc1ccccc1Nc1cc(C(=O)NC2CCCC2)c2ccccc2n1	inactive: 3.72%

Reference: PubChem BioAssay AID1346428 (National Center for Advancing Translational Sciences (NCATS), 2018)
